About 14,000 (4.5%) of roughly 310,000 compounds showed an effect of 50% or more. The effect is printed as a negative number. The list shows a part of the results.
These compounds were tested against human ether-à-go-go-related gene (hERG) potassium channel (human, UniProt Q12809) (assay: primary screen, population patch clamp on CHO cells stably expressing hERG).
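Note: peak tail current of the secondary pulse compared with the same well before compound.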

Sequence of human ether-à-go-go-related gene (hERG) potassium channel (Q12809 whole entry, looked up): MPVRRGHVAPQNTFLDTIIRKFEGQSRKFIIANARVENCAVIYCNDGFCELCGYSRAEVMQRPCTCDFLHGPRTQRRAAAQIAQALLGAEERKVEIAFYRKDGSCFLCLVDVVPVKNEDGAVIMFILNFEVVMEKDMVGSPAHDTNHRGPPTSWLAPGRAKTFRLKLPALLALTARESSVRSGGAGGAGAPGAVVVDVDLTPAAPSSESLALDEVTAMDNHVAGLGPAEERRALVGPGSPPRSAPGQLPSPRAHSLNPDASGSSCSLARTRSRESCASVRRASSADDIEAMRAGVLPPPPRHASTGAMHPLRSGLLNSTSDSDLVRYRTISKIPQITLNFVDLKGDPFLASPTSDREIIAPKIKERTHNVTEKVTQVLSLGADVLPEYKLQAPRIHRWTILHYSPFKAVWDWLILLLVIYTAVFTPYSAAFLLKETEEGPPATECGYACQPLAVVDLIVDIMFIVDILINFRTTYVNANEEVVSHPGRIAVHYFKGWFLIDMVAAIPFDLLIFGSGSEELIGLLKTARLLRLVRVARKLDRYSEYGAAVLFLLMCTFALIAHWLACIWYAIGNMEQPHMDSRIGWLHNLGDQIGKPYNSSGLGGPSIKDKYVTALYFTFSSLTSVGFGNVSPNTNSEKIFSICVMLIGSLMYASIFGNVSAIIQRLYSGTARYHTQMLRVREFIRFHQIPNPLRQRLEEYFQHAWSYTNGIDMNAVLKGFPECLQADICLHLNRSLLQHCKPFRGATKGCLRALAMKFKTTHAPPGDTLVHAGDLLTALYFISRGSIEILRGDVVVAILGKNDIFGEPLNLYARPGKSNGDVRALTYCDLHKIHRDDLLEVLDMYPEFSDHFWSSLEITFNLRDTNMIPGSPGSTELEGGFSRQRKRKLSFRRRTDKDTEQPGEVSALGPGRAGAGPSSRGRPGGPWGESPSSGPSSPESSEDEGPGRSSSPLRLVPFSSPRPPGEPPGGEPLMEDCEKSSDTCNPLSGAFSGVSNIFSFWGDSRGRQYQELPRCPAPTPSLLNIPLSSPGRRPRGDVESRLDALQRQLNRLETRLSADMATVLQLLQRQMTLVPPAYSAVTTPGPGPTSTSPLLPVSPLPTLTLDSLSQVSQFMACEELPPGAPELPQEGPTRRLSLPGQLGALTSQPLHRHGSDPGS

SMILES	hERG current change (%, negative = inhibition) at 10uM
N#C/C(=C\c1ccc(Cl)cc1Cl)c1n[nH]c(Cn2cncn2)n1	-2.22%
CCOC(=O)N1CCC(N2C(=O)c3ccccc3C2Nc2ccccc2)CC1 (centres unmarked)	-9.74%
CSc1sc(C(=O)NNC(C)=O)c2c1C1(CCC2)SCCS1	2.57%
Cc1cccc(C(=O)Oc2ccc(/C=N/NC(=O)c3cc(O)cc(O)c3)cc2)c1	18.6%
CC(=O)Nc1ccc(Sc2ncccc2C(=O)Nc2ccc(F)cc2)cn1	13.9%
O=C(c1ccccc1Br)N1CCC(c2nc3ccccc3s2)CC1	-35.1%
CC(C)Oc1ccc(/C=C/C(=O)NCC2COc3ccccc3O2)cc1 (centres unmarked)	-2.55%
CN(CC1COCCO1)c1nc2nonc2nc1N1CCSCC1 (centres unmarked)	-0.507%
CCCCN1C(=O)CN(CCc2ccccc2)C(=O)C1c1ccc(OC)cc1 (centres unmarked)	-13.5%
CCCCN1C(=O)C(O)(CC(=O)c2ccccn2)c2ccccc21 (centres unmarked)	1.42%
COc1cc(C2OC(=O)C3C(c4ccc(OC(C)=O)c(OC)c4)OC(=O)C23)ccc1OC(C)=O (centres unmarked)	20.8%
Cn1cnnc1SCC(=O)Nc1ccc2ccccc2c1	2.21%
Cc1cc(C)nc(N(C#N)CC(=O)N2CCC(C(N)=O)CC2)n1	20.1%
COc1ccccc1N1CC(C(=O)Nc2ccc(S(=O)(=O)N3CCOCC3)cc2)CC1=O (centres unmarked)	10.2%
COCOc1ccc(/C=C2/Oc3cc(OCOC)cc(OCOC)c3C2=O)c(OCOC)c1	13%
COc1cccc(NS(=O)(=O)c2cn(C)c(=O)n(C)c2=O)c1	6.07%
Cc1ccc(C)c(OCc2cc(C(=O)N3CCC(N4CCCC(O)C4)CC3)no2)c1 (centres unmarked)	-42.6%
O=C(NC(=S)Nc1ccc(S(=O)(=O)N2CCCCC2)cc1)c1ccccc1	3.97%
CC1(C)CC(=O)C2=C(C1)OC(N)=C(C#N)C2c1cccs1 (centres unmarked)	-1.81%
Cc1ccc(C)c(Cn2nnc3c(=O)[nH]c(C(=O)NCc4ccco4)nc32)c1	-13.3%
CC(C)c1ccc(/C=C/C(=O)NC2CCCCC2)cc1	-3.16%
Cc1ccc(O)c(-c2[nH]ncc2C(=O)c2ccc(Br)cc2)c1	-6.23%

SMILES	hERG current change (%, negative = inhibition) at 10uM
Nc1ccc(C(=O)Nc2nc3ccccc3s2)cc1	9.9%
COc1ccc(OC)c(S(=O)(=O)N2CCN(C(=O)c3ccco3)CC2)c1	16.6%
COc1ccc(/C=N/NC(=O)c2[nH]c3ccc(C)cc3c2-c2ccccc2)c(C(=O)O)c1OC	21.2%
COc1ccccc1CNC(=O)CS(=O)Cc1nc(-c2ccc(OC)c(OC)c2)oc1C (centres unmarked)	-6.47%
COCCSc1nnc(NC(=O)C2CC(=O)N(c3ccc(OC)cc3)C2)s1 (centres unmarked)	6.35%
O=C(OCC(=O)N1CCOCC1)c1cc(F)c(F)cc1Cl	-1.44%
Cc1cc(-c2nnc(CCC(=O)N(CC3CC3)CC3CCCO3)o2)no1 (centres unmarked)	10.9%
Cc1nc2cc3ccccc3cc2c(=O)[nH]1	-16%
Clc1ccc(-c2csc(NNC3=NCCCCC3)n2)cc1	5.17%
Cc1cc(C)nc(SCC(=O)Nc2ncccn2)n1	23.3%
Cc1ccc(OCC(=O)N2CCOCC2)c([N+](=O)[O-])n1	29.1%
O=C(N/N=C/c1sc(N2CCOCC2)nc1-c1ccccc1)c1cccc(S(=O)(=O)N2CCCC2)c1	29.6%
C[C@H](NC(=O)c1nc[nH]c1C(=O)N(C)Cc1ccccc1)C(=O)OC(C)(C)C	5.67%
C[C@@H](C(=O)Nc1ccc2ccccc2c1)[C@H]1C[C@]1(C)[C@H](NS(=O)(=O)c1ccc(-c2ccccc2)cc1)c1ccccc1	-6.75%
CCN(CC)CCC(O)(c1ccccc1)C1CCCCC1 (centres unmarked)	-3.58%
Cc1cc(C)cc(-n2nnnc2SCC(=O)Nc2cccc(NC(=O)c3ccco3)c2)c1	0.456%
COc1ccc(OC)c(NC(=O)CN2C(=O)NC(C)(c3ccc4c(c3)OCCO4)C2=O)c1 (centres unmarked)	0.589%
CN1CCCN(C(=O)/C=C/c2ccc(F)cc2)CC1	-23.7%
O=S(=O)(c1ccc(NC(=S)N2CCN(c3ccc(O)cc3)CC2)cc1)N1CCOCC1	2.83%
COc1ccc(/C(O)=C/c2nc3ccccc3n(-c3ccccc3)c2=O)cc1	8.38%
O=C(O)c1cc(NS(=O)(=O)c2ccc(NCc3ccccc3)c([N+](=O)[O-])c2)cc(C(=O)O)c1	20.9%
COc1ccc(CN(C)C(=O)Cn2ccc(N)nc2=O)cc1OC	23.2%

SMILES	hERG current change (%, negative = inhibition) at 10uM
O=C(COC(=O)c1cccnc1Cl)Nc1ccc2c(c1)OCCO2	-11%
CCCCN(C(=O)C(C)N1C(=O)c2ccccc2C1=O)c1c(N)n(CC(C)C)c(=O)[nH]c1=O (centres unmarked)	20.1%
O=C1C(=O)c2ccccc2-c2ccccc21	0.909%
CCN(c1ccccc1)S(=O)(=O)c1ccc(C(=O)NCCCN2CCOCC2)cc1	-2.47%
CCCCn1c(N)c(N(CC(C)C)C(=O)c2cccc(S(=O)(=O)N3CCN(C(C)=O)CC3)c2)c(=O)[nH]c1=O	-17.3%
CCOC(=O)COc1c(Cl)cc(/C=C2\N=C(C)OC2=O)cc1OC	10.7%
COC(=O)c1c(C)[nH]c(C(C)=O)c1C	4.91%
CCn1c2ccc(/C(C)=N\O)cc2c2cc(/C(C)=N\O)ccc21	10.2%
Cc1cc(C(=O)N/N=C/c2ccc(C)s2)n[nH]1	19.9%
CSc1ccc(/C=N/N2CCN(Cc3ccccc3Cl)CC2)cc1	21.3%
Cc1ccc(S(=O)(=O)N2CCN(C(=O)c3cccs3)CC2)cc1C	-18.1%
Cc1c(CC(=O)NCC(C)C)c(=O)oc2cc3c(cc12)CCC(C)(C)O3	10.6%
COC(=O)C1CSC(C(=O)OC)N1C(=O)Nc1ccccc1 (centres unmarked)	3.88%
CC(C)c1ccc(NC(=O)C2CC(=O)N(C3CCCC3)C2)cc1 (centres unmarked)	3.66%
CN(C)c1ccc(NC(=S)NC23CC4CC(CC(C4)C2)C3)cc1	27.6%
Cn1c(N)nc2nc(CCc3ccccc3)c(=O)[nH]c2c1=O	12.6%
NS(=O)(=O)c1ccc(CCNC(=O)C2CCCO2)cc1 (centres unmarked)	16.3%
NC(=O)NC(CC(=O)N1CCc2ccccc2C1)c1ccc(Cl)cc1 (centres unmarked)	2.09%
CCn1c(=O)c2sccc2n(Cc2ccccc2)c1=O	-3.52%
NS(=O)(=O)c1cccc(NC(=O)c2ccno2)c1	11%
CCOC(=O)C1CCN(C(=O)CN(C)S(=O)(=O)c2ccc3c(c2)c(=O)n(C)c(=O)n3C)CC1	-1.96%
COc1ccc(S(=O)(=O)n2nc(OC(C)=O)cc2N)cc1	4.23%

SMILES	hERG current change (%, negative = inhibition) at 10uM
CCn1c(COc2cc(C)ccc2C(C)C)nnc1SCC(=O)Nc1nccs1	5.52%
O=C(NCCCN1CCCC1=O)c1ccc2c(=O)n(-c3ccccc3F)c(=S)[nH]c2c1	21.8%
O=c1nc(N2CCCC2)nc(Nc2ccccc2)[nH]1	11.9%
Cc1c(CCO)c(=O)n(-c2ccccc2)n1S(=O)(=O)c1c(Cl)cc(Cl)cc1Cl	-4.12%
O=C(NCCn1cc(SCc2ccc(F)cc2)c2ccccc21)c1c(F)cccc1F	9.31%
CC(=O)O.O=c1/c(=C/c2ccc(O)cc2)sc2n1CCCN=2	-12.6%
Cc1nc(SCC(=O)Nc2ccccc2C(F)(F)F)c(C#N)c(C)c1CC(=O)c1ccc(Br)cc1	25%
O=C(Nc1ccccc1)c1ccc(CN2CCc3ccccc3C2)cc1	21.7%
CCc1ccc(CNC(=O)CCC(=O)N2Cc3cccc(OC)c3Oc3ncccc32)cc1	-75%
CC(=O)c1ccc(NC(=S)NC(=O)CC(C)C)cc1	17.9%
COc1ccccc1-c1oc2ccccc2c1C#CC(C)(C)O	10.5%
CN(C)c1nc(-c2ccccc2)nnc1C(F)(F)F	6.39%
CC(=O)c1cccc(N(CC(=O)N2CCCCC2)S(C)(=O)=O)c1	-6.16%
CCCCc1c(O)nc(SCC(=O)c2ccccc2)n(-c2ccccc2)c1=O	14.6%
Cc1noc(C)c1CCC(=O)N1CCCC(CCC(=O)NCc2ccccc2F)C1 (centres unmarked)	8.33%
O=C(NCC(=O)N(Cc1ccccc1)C(C(=O)NC1CCCC1)c1ccco1)c1ccco1 (centres unmarked)	-22.4%
CCOC(=O)c1nn(-c2ccccc2)c(=O)cc1OCC(=O)Nc1cccc(OC)c1	2.93%
CCCOc1ccc(N2CC(C(=O)Nc3ccccc3C(=O)NC)CC2=O)cc1 (centres unmarked)	-71.8%
COc1ccc(C(=O)NC(=S)Nc2ccc(Cl)cn2)cc1OC	19.1%
CCOc1cc(C(=S)N2CCC(O)CC2)ccc1OS(=O)(=O)c1ccc(Br)cc1	-1.17%

Source: article PMC4336329 (PLoS ONE, 2015)
